# Data as given in the supplement of paper PMC10441789.
# This is one part of the list. Antibody binding of pooled human sera (four to six donors per pool; dilution not stated) to peptides of the Trypanosoma cruzi antigen TSSA on microarrays. Quantile-normalised fluorescence in arbitrary units, mean of duplicate arrays; higher = more binding. No active / inactive call. The uninfected pools are read here as the healthy donors of the same country. The strongest signals lie near the top of the scale (about 60,000).
# Tested on: pooled sera of chronic Chagas disease patients, Argentina
# Assay: antibody binding signal (normalised fluorescence) (arbitrary fluorescence units); higher = stronger serum antibody binding to peptide
# Procedure: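 Microarray of 15-residue peptides over residues 30-55 of Trypanosoma cruzi TSSAII, each with 1 to 10 substitutions at naturally variable positions, probed with one serum pool per country.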
row,Sequence,antibody binding signal
1,PPSGKENKAAAGETP,6000
2,DNKAATGGAPSPSGA,601
3,TPPSGTEKKAAAGGT,33400
4,GTDKKPAAGGTPSQS,265
5,ENKPAAGGTPSPSGA,462
6,TENKPAAGETPSPSG,44200
7,KDKKAAAGEAPSQSG,210
8,NKTATGGAPSPPGAS,678
9,GKDKKPAAGGTPSPP,221
10,EKKPAAGEAPSPPGA,896
11,SGTEKKAAAGGTPSP,1020
12,PPSGKDKKPAAGGTP,800
13,DKKPAAGETPSQSGA,523
14,KENKPAAGGTPSQSG,190
15,KKPAAGETPSQPGAS,235
16,KAAAGGTPSPSGASS,229
17,SGKDKKPAAGEAPSQ,1460
18,PPSGTDKKPATGEAP,45800
19,SGTDKKTATGGAPSP,2560
20,GKEKKAAAGGTPSQS,1080

row,Sequence,antibody binding signal
1,KTAAGETPSPSGASS,159
2,PSGTENKAAAGGAPS,49300
3,KKPATGEAPSPSGAS,21900
4,KDKKTAAGETPSQPG,221
5,GTEKKAATGGAPSQP,1330
6,SGKDKKTATGETPSP,454
7,TPPSGKDNKTATGEA,2930
8,KDKKAATGETPSPSG,390
9,GTDKKAAAGEAPSQP,5450
10,PPSGTDNKAAAGEAP,24900
11,GTEKKAAAGGTPSPS,611
12,TDNKPAAGEAPSQSG,2460
13,SGKDKKTATGGTPSP,688
14,KPATGETPSQSGASS,35800
15,DKKPATGETPSQSGA,32400
16,DNKTAAGEAPSPSGA,228
17,SGKEKKTAAGGAPSP,2430
18,PSGTDNKAAAGGTPS,15200
19,GKENKTATGGTPSQS,2120
20,DKKTAAGGTPSQPGA,664
